Measured values taken from article PMC8694192, “Synthesis and biological evaluation of new derivatives of thieno-thiazole and dihydrothiazolo-thiazole scaffolds integrated with a pyrazoline nucleus as anticancer and multi-targeting kinase inhibitors” (RSC Advances, 2021).

Experiments:
[1] = tested on: S. pneumoniae 010010; test: Agar well diffusion, inhibition zone; type: cell-based; conditions: Streptococcus pneumoniae, 010010, read-out: Mean diameter of inhibition zone (mean ± SEM) S. pneumoniae 010010
[2] = tested on: E. coli RCMB 010052; test: Agar well diffusion, inhibition zone; type: cell-based; conditions: Escherichia coli, RCMB010052, read-out: Mean diameter of inhibition zone (mean ± SEM) E. coli RCMB 010052
[3] = tested on: S. typhi ATCC 14028; test: Agar well diffusion, inhibition zone; type: cell-based; conditions: Salmonella enterica, read-out: Mean diameter of inhibition zone (mean ± SEM) S. typhi ATCC 14028
[4] = tested on: P. aeruginosa; test: Agar well diffusion, inhibition zone; type: cell-based; conditions: Pseudomonas aeruginosa, read-out: Mean diameter of inhibition zone (mean ± SEM) P. aeruginosa
[5] = tested on: A. fumigatus RCMB 02568; test: Agar well diffusion, inhibition zone; type: cell-based; conditions: Aspergillus fumigatus, RCMB02568, read-out: Mean diameter of inhibition zone (mean ± SEM) A. fumigatus RCMB 02568
[6] = tested on: C. albicans ATCC 10231; test: Agar well diffusion, inhibition zone; type: cell-based; conditions: Candida albicans, ATCC10231, read-out: Mean diameter of inhibition zone (mean ± SEM) C. albicans ATCC 10231
[7] = tested on: S. typhi ATCC 14028; test: MIC, two-fold serial dilution; type: cell-based; conditions: Salmonella enterica, read-out: MIC S. typhi ATCC 14028
[8] = tested on: S. aureus 25923; test: MIC, two-fold serial dilution; conditions: Staphylococcus aureus, 25923, read-out: MIC S. aureus 25923
[9] = tested on: E. faecalis; test: MIC, two-fold serial dilution; conditions: Enterococcus faecalis, read-out: MIC E. faecalis
[10] = tested on: S. pneumoniae 010010; test: MIC, two-fold serial dilution; conditions: Streptococcus pneumoniae, 010010, read-out: MIC S. pneumoniae 010010
[11] = tested on: E. coli RCMB 010052; test: MIC, two-fold serial dilution; conditions: Escherichia coli, RCMB010052, read-out: MIC E. coli RCMB 010052
[12] = tested on: P. aeruginosa; test: MIC, two-fold serial dilution; conditions: Pseudomonas aeruginosa, read-out: MIC P. aeruginosa
[13] = tested on: A. fumigatus RCMB 02568; test: MIC, two-fold serial dilution; conditions: Aspergillus fumigatus, RCMB02568, read-out: MIC A. fumigatus RCMB 02568
[14] = tested on: C. albicans ATCC 10231; test: MIC, two-fold serial dilution; conditions: Candida albicans, ATCC10231, read-out: MIC C. albicans ATCC 10231
[15] = tested on: S. aureus 25923; test: Agar well diffusion, inhibition zone; type: cell-based; conditions: Staphylococcus aureus, 25923, read-out: Mean diameter of inhibition zone (mean ± SEM) S. aureus 25923
[16] = tested on: E. faecalis; test: Agar well diffusion, inhibition zone; type: cell-based; conditions: Enterococcus faecalis, read-out: Mean diameter of inhibition zone (mean ± SEM) E. faecalis

Row | SMILES | zone of inhibition at 500 µg/mL [1] [mm] | zone of inhibition at 500 µg/mL [2] [mm] | zone of inhibition at 500 µg/mL [3] [mm] | zone of inhibition at 500 µg/mL [4] [mm] | zone of inhibition at 500 µg/mL [5] [mm] | zone of inhibition at 500 µg/mL [6] [mm] | MIC [7] [µM] | MIC [8] [µM] | MIC [9] [µM] | MIC [10] [µM] | MIC [11] [µM] | MIC [12] [µM] | MIC [13] [µM] | MIC [14] [µM] | zone of inhibition at 500 µg/mL [15] [mm] | zone of inhibition at 500 µg/mL [16] [mm]
1 | Cc1c(NC2=NC(=O)CS2)c(=O)n(-c2ccccc2)n1C [Compound 1, 2-((1,5-Dimethyl-3-oxo-2-phenyl-2,3-dihydro-1H-pyrazol-4-yl)amino)thiazol-4(5H)-one] | 30 ± 0.87 | 26 ± 0.22 | 21 ± 0.54 | 27 ± 0.51 | 25 ± 0.88 | 22 ± 0.3 | 62.2 (≈ 18.8 µg/mL) | 3.63 (≈ 1.1 µg/mL) | 16.1 (≈ 4.88 µg/mL) | 3.94 (≈ 1.19 µg/mL) | 18.3 (≈ 5.54 µg/mL) | 7.52 (≈ 2.27 µg/mL) | 20.8 (≈ 6.29 µg/mL) | 38.3 (≈ 11.6 µg/mL) |  | 
2 | Cc1c(Nc2nc3c(C(=O)NN)c(N)sc3s2)c(=O)n(-c2ccccc2)n1C [Compound 3c, 5-Amino-2-((1,5-dimethyl-3-oxo-2-phenyl-2,3-dihydro-1H-pyrazol-4-yl)amino) thieno[3,2-d]thiazole-6-carbohydrazide] | 25 ± 0.17 | 28 ± 0.92 | 21 ± 0.16 | 23 ± 0.13 | 24 ± 0.15 | 18 ± 0.67 | 64 (≈ 26.6 µg/mL) | 4.12 (≈ 1.71 µg/mL) | 17.3 (≈ 7.18 µg/mL) | 20.1 (≈ 8.37 µg/mL) | 14.2 (≈ 5.89 µg/mL) | 42.2 (≈ 17.5 µg/mL) | 19.2 (≈ 7.99 µg/mL) | 18.4 (≈ 7.65 µg/mL) | 30 ± 0.47 | 27 ± 0.36

In brackets after ≈: the same amount, converted by molar mass.
